# Results: PubChem BioAssay AID624172 (National Center for Advancing Translational Sciences (NCATS), 2012)
# Hit rate of the full screen: of about 380,000 compounds, about 25 (0.007%) were called active. Inconclusive results, whose numbers are uncertain, are shown with a selection of clear calls. The call rests on the fitted dose curve; in most records, active means well fitted activation curve with a large enough effect; inconclusive means small, poorly fitted or top-dose-only effect; inactive means no such curve, though single readings can be large or run the other way. Potencies of inconclusive entries are left out as doubtful fits.
# Target: Glucagon-like peptide 1 receptor (Homo sapiens) (UniProt P43220)
# Test: qHTS of GLP-1 Receptor Agonists; on activation: % of control where 0% means no effect
# Conditions: HEK293 GLP-1R CRE-luciferase, luminescence, 4-6 h, cells express a hypersensitive GLP-1R form; activation: at 45.6 µM (top of the series) unless noted
# Potency means the concentration at half of the fitted maximal effect; tags describe the fitted curve by direction and shape.
# UniProt P43220, sequence (P43220 whole entry, looked up): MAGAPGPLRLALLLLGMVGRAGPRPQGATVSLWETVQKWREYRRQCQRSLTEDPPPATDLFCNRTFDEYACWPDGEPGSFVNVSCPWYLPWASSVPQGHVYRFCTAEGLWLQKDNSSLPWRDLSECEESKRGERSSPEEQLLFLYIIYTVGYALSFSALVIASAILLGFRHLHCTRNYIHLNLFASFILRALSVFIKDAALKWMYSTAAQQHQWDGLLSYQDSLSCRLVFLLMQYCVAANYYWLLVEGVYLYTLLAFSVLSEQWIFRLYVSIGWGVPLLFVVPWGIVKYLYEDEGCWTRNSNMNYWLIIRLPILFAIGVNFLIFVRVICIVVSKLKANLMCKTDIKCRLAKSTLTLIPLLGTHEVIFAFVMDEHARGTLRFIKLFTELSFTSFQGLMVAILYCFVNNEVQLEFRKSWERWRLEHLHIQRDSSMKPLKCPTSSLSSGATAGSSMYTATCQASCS
Compound,Potency,activation
O=[N+]([O-])c1ccc(O)c(-c2nn[nH]n2)c1,inactive,–
O=C(Nc1ccc(C2CC2(Cl)Cl)cc1)c1cccc([N+](=O)[O-])c1 (centres undefined),"inconclusive [activator, single point]",–
CN(C)S(=O)(=O)c1ccc(C(=O)Nc2ccc(OCC(=O)N3CCOCC3)cc2)cc1,"inconclusive [activator, full curve, poor fit]",–
OC(CNCc1ccc(F)cc1)(c1ccc(F)cc1)c1ccc(F)cc1,inactive,–
CC(C)OCCCNC(=O)c1ccc2c(c1)S(=O)(=O)c1ccccc1C2=O,"inconclusive [activator, single point]",–
CCOC(=O)c1c(NC(=O)CNCCO)sc(C)c1C,"inconclusive [activator, partial curve, poor fit]",–
COc1cc(OC)cc(C(=O)Nc2nc(CC(=O)NCc3ccc(F)cc3)cs2)c1,inactive,–
COc1cc2c(cc1OC)C1=C(C#N)CCC(=NC(=O)c3ccc(Cl)cc3)N1CC2,"inconclusive [activator, partial curve, poor fit]",–
COC(=O)c1ccccc1CON1C(=O)C(C)(C)N(OCc2ccccc2C(=O)OC)C(=O)C1(C)C,"inconclusive [activator, partial curve, poor fit]",–
OCc1ccc(-c2cccc3nccn23)cc1,inactive,–
COc1ccc(CNC(C)C(=O)Nc2ccc3ccccc3c2)cc1OC (centres undefined),"inconclusive [activator, partial curve]",–
O=S(=O)(c1ccc2c(c1)OCCO2)N1CCN(c2ncnc3sccc23)CC1,"inconclusive [activator, partial curve, poor fit]",–
CCOC(=O)C1CCN(c2ncnc3c2oc2ccc(Cl)cc23)CC1,"inconclusive [activator, partial curve, poor fit]",–
O=C(c1ccco1)N1N=C(c2ccc(Br)cc2)CC1(O)C(F)(F)F (centres undefined),"inconclusive [activator, partial curve]",–
COc1ccc(Nc2oc(-c3ccccc3)nc2C#N)cc1,"inconclusive [activator, partial curve, poor fit]",–
CN(C(=O)/C=C/c1ccccc1)C1CCCCC1,inactive,–
COCC(C)n1c(SCC(=O)NCCC2=CCCCC2)nc2ccccc2c1=O (centres undefined),inactive,–
CCN(CC)c1ccc(/C=N/NC(=O)c2ccc3nc[nH]c3c2)c(O)c1,inactive,–
CC(CCc1ccccc1)NC(=O)c1cc2sccc2n1C (centres undefined),"inconclusive [activator, single point]",–
CC(Nc1nc2ccccc2n2cnnc12)c1ccccc1 (centres undefined),"inconclusive [activator, partial curve, poor fit]",–
CNC(=O)COC(=O)c1ccccc1Nc1ccccc1,"inconclusive [activator, single point]",–
CC1CCN(CCC(=O)Nc2ccc(Br)cc2)CC1,"inconclusive [activator, single point]",–
O=C(CCn1c(=O)c2ccccc2n(Cc2cccnc2)c1=O)NCc1ccc2c(c1)OCO2,inactive,–

Compound,Potency,activation
CN(C)/C=N/c1sc2c(c1C#N)CCCCC2,"inconclusive [activator, single point]",–
CCOC(=O)c1ccc(N2CCOCC2)c(NC(=O)c2c(-c3ccccc3)noc2C)c1,"inconclusive [activator, single point]",–
COc1ccc(C2CC(C(F)(F)F)n3nc(C(=O)NCc4cn(C)nc4C)c(Cl)c3N2)cc1 (centres undefined),inactive,–
COc1ccc(/C=C(\C#N)c2nc3ccccc3[nH]2)cc1O,"inconclusive [activator, partial curve, poor fit]",–
CCOC(=O)c1nnn(-c2nonc2N)c1-c1ccc(OC)cc1,inactive,–
CCCN1C(=O)c2ccc(C(=O)Nc3ccccc3C(=O)O)cc2C1=O,inactive,–
CC(=O)c1cc(C#N)c(SCCC(C)C)nc1C,"inconclusive [activator, partial curve, poor fit]",–
CCn1c(=O)c(C(=O)NCCCO)c(O)c2ccccc21,"inconclusive [activator, partial curve, poor fit]",–
CC1(C)CC(=O)C2=C(C1)OC1=C(C(=O)CC(C)(C)C1)C2c1cccc([N+](=O)[O-])c1,inactive,–
COc1cc(OC)c(C(=O)NC2CCCCCC2)cc1OC,"inconclusive [activator, single point]",–
Cc1ccc(CNc2ccc([N+](=O)[O-])cc2C(N)=O)cc1,"inconclusive [activator, partial curve]",–
CCOc1ccc(OCc2cccc(C(=O)N/N=C/c3cccnc3)c2)cc1,inactive,–
Cn1ccnc1SCC(=O)Nc1ccc(Cl)cn1,–,inconclusive: 47.1% [activator]
COc1ccccc1OCCNc1cc(N2CCOCC2)ccc1[N+](=O)[O-],"inconclusive [activator, partial curve, poor fit]",–
COc1ccc(C2=NN(C(=O)c3cccs3)C(O)(C(F)(F)F)C2)cc1 (centres undefined),"inconclusive [activator, partial curve, poor fit]",–
Cc1nc(Nc2ccccc2C)c2cnn(C)c2n1,"inconclusive [activator, single point]",–
CCOC(=O)c1cc(-c2ccccc2)sc1NC(=O)C(C)Sc1nnc(C)s1 (centres undefined),"inconclusive [activator, partial curve]",–
O=C1CN(Cc2nc3cc(Cl)ccc3c(=O)[nH]2)CCN1,inactive,–
COc1ccc(-c2[nH]ncc2N=Nc2cc(C)cc(C)c2)cc1,"inconclusive [activator, partial curve, poor fit]",–
COc1cccc(C(NC(C)=O)c2nc(-c3cccc(C#N)c3)cs2)c1 (centres undefined),–,inconclusive: 49.4% [activator]
Cc1cc(Br)c2c(c1)=C(c1sc(N3CCCCCC3)nc1O)C(=O)N=2,"inconclusive [activator, partial curve, poor fit]",–
CNC(=O)[C@H]1O[C@@H](n2cnc3c(NCc4cccc(I)c4)ncnc32)[C@H](O)[C@@H]1O,"inconclusive [activator, partial curve, poor fit]",–
COc1cc2c(cc1OC)C(COc1ccccc1OC)N(C(=O)c1ccco1)CC2 (centres undefined),"inconclusive [activator, partial curve, poor fit]",–

Compound,Potency,activation
CC1CCN(CCOc2ccc(OCc3ccccc3)cc2)CC1,inactive,–
O=C(OCc1ccccc1C(F)(F)F)c1cc([N+](=O)[O-])ccc1N1CCOCC1,"inconclusive [activator, single point]",–
CCc1ccc2oc(=O)cc(CN3CCC(C)CC3)c2c1,"inconclusive [activator, partial curve, poor fit]",–
CCOCCOC(=O)c1[nH]c2c(c1C)C(=O)CC(c1ccccc1)C2 (centres undefined),inactive,–
CCOc1cc(CNC(=O)CCCn2c(=O)c3cccn3c3cccnc32)cc(OCC)c1OCC,"inconclusive [activator, single point]",–
CCOc1c(C)cnc2c1c(=O)n(Cc1ccc(Cl)cc1)c(=O)n2C,inactive,–
N#Cc1cccc(NC(=O)CCNS(=O)(=O)c2ccc3c(c2)CCN3C(=O)C2CC2)c1,inactive,–
CCCc1c(C)c2ccc(OCC(C)=O)cc2oc1=O,"inconclusive [activator, partial curve, poor fit]",–
COc1ccc(OC)c(Nc2c3c(nc4ccccc24)CCC3)c1,"inconclusive [activator, single point]",–
COc1cc(F)ccc1-c1csc(C(O)c2ccccc2)n1 (centres undefined),"inconclusive [activator, partial curve, poor fit]",–
O=C(c1cccc(S(=O)(=O)N2CCOCC2)c1)N1CCN(C/C=C/c2ccccc2)CC1,inactive,–
CCCn1c2ccccc2c2nnc(SC(CC)C(=O)Nc3cc(C)on3)nc21 (centres undefined),"inconclusive [activator, partial curve]",–
Cc1ccc(NC(=O)COC(=O)c2ccc(NC(=O)CC#N)cc2)cc1S(=O)(=O)N1CCOCC1,inactive,–
COc1cccc(N2C(=O)CN(Cc3ccc(OC)c(OC)c3)C2=S)c1,"inconclusive [activator, partial curve, poor fit]",–
S=c1[nH]nc(-c2ccc3ccccc3n2)n1-c1ccc2c(c1)OCCO2,–,inconclusive: 61.8% [activator]
CCc1ccccc1NC(=S)N1CCC(C(=O)c2ccc(F)cc2)CC1,"inconclusive [activator, single point]",–
CC(C)c1ccc(NC(=O)C(c2ccc3c(c2)OCO3)N2CCN(C(=O)c3ccco3)CC2)cc1 (centres undefined),inactive,–
CCNC(=O)CON=C1c2ccccc2-c2ccccc21,"inconclusive [activator, single point]",–
Cc1ccc(S(=O)(=O)Nc2cc3c(cc2C#N)OCO3)cc1C(N)=O,–,inconclusive: 35.1% [activator]
CCCC(C(=O)NCC1CCCO1)N(Cc1ccco1)C(=O)CNS(=O)(=O)c1ccc(F)cc1 (centres undefined),"inconclusive [activator, partial curve, poor fit]",–
COc1ccc(CNC(=S)Nc2cccc(F)c2)cc1,inactive,–
Nc1ccc(-c2nc3c(ccc4ccccc43)[nH]2)cc1,inactive,–
COC(=O)c1ccc(CSc2nc3ccccc3c(=O)n2-c2ccccc2)o1,"inconclusive [activator, single point]",–
